# Measurements reported in the supplement of paper PMC8728848.
# The other results are listed elsewhere or left out.
# B1: Sebin1 (Coprinopsis cinerea), A8PEE3 (protein)
# chain: MTSPFYAHIHNVQDDNTWRFTLIFANRATADEWWRAISEAPANTSIAKSITRVTPQYYTHDVNIWNIWNFFADGNIKSISERFRGRLFIVLENDRGGRGITVIPPVPIVDHVSGNWFYIRSKTAPHLFWYYDERRSSIYASKEKRTRFKISIRNPSSQTPKNAIMINTDDVTIHIKENLYVGVDNNLGHIIPTRAYRTFKFGELESGAIAGFDVVENIEERCSSTFDGASLSISGPDSSSPGEPWELV
# How the values were obtained:
# Test in all cases: glycan array binding signal (z-score within array); higher = stronger binding
# Settings in all cases: glycan notation: IUPAC condensed, linker removed
# [1] = biological target: GlcNAc(a1-3)Gal(b1-4)GlcNAc
# How it was run: (§1)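 The binding signal is a Z-score computed within each array and averaged over linkers. Arrays of the same protein sequence at different concentrations or buffers were also averaged together. Data originate from 3228 arrays in the Consortium for Functional Glycomics database, kept only where the protein sequence was available.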
# [2] = biological target: GlcNAc(a1-4)Gal(b1-3)GlcNAc
# How it was run: as §1
# [3] = biological target: GlcNAc(a1-4)Gal(b1-4)GalNAc
# How it was run: as §1
# [4] = biological target: GlcNAc(a1-4)Gal(b1-4)GlcNAc
# How it was run: as §1
# [5] = biological target: GlcNAc(a1-4)Gal(b1-4)GlcNAc(b1-3)Gal(b1-4)Glc
# How it was run: as §1
# [6] = biological target: GlcNAc(a1-4)Gal(b1-4)GlcNAc(b1-3)Gal(b1-4)GlcNAc
# How it was run: as §1
# [7] = biological target: GlcNAc(a1-4)Gal(b1-4)GlcNAc(b1-3)Gal(b1-4)GlcNAc(b1-3)Gal(b1-4)GlcNAc
# How it was run: as §1
# [8] = biological target: GlcNAc(a1-4)Gal(b1-4)GlcNAc(b1-3)Gal(b1-4)[Fuc(a1-3)]GlcNAc(b1-3)Gal(b1-4)[Fuc(a1-3)]GlcNAc
# How it was run: as §1
# [9] = biological target: GlcNAc(a1-6)Gal(b1-4)GlcNAc
# How it was run: as §1
# [10] = biological target: GlcNAc(b1-2)Gal(b1-3)GalNAc
# How it was run: as §1
# [11] = biological target: GlcNAc(b1-2)Man(a1-3)[GlcNAc(b1-2)Man(a1-6)]Man(b1-4)GlcNAc(b1-4)GlcNAc
# How it was run: as §1
# [12] = biological target: GlcNAc(b1-2)Man(a1-3)[GlcNAc(b1-2)Man(a1-6)]Man(b1-4)GlcNAc(b1-4)[Fuc(a1-6)]GlcNAc
# How it was run: as §1
# [13] = biological target: GlcNAc(b1-2)Man(a1-3)[GlcNAc(b1-4)][GlcNAc(b1-2)Man(a1-6)]Man(b1-4)GlcNAc(b1-4)GlcNAc
# How it was run: as §1
# [14] = biological target: GlcNAc(b1-2)Man(a1-3)[GlcNAc(b1-4)][GlcNAc(b1-2)Man(a1-6)]Man(b1-4)GlcNAc(b1-4)[Fuc(a1-6)]GlcNAc
# How it was run: as §1
# [15] = biological target: GlcNAc(b1-2)[GlcNAc(b1-4)]Man(a1-3)[GlcNAc(b1-2)Man(a1-6)]Man(b1-4)GlcNAc(b1-4)GlcNAc
# How it was run: as §1
# [16] = biological target: GlcNAc(b1-2)[GlcNAc(b1-4)]Man(a1-3)[GlcNAc(b1-4)][GlcNAc(b1-2)Man(a1-6)]Man(b1-4)GlcNAc(b1-4)GlcNAc
# How it was run: as §1
# [17] = biological target: GlcNAc(b1-2)[GlcNAc(b1-4)]Man(a1-3)[GlcNAc(b1-4)][GlcNAc(b1-2)[GlcNAc(b1-6)]Man(a1-6)]Man(b1-4)GlcNAc(b1-4)GlcNAc
# How it was run: as §1
# [18] = biological target: GlcNAc(b1-2)[GlcNAc(b1-4)]Man(a1-3)[GlcNAc(b1-4)][GlcNAc(b1-2)[GlcNAc(b1-6)]Man(a1-6)]Man(b1-4)GlcNAc(b1-4)[Fuc(a1-6)]GlcNAc
# How it was run: as §1
# [19] = biological target: GlcNAc(b1-2)[GlcNAc(b1-6)]Man(a1-6)[GlcNAc(b1-2)Man(a1-3)]Man(b1-4)GlcNAc(b1-4)GlcNAc
# How it was run: as §1
# [20] = biological target: GlcNAc(b1-2)[GlcNAc(b1-6)]Man(a1-6)[GlcNAc(b1-2)Man(a1-3)]Man(b1-4)GlcNAc(b1-4)[Fuc(a1-6)]GlcNAc
# How it was run: as §1
# [21] = biological target: GlcNAc(b1-2)[GlcNAc(b1-6)]Man(a1-6)[GlcNAc(b1-4)][GlcNAc(b1-2)Man(a1-3)]Man(b1-4)GlcNAc(b1-4)GlcNAc
# How it was run: as §1
# GlcNAc(b1-3)Fuc = biological target: GlcNAc(b1-3)Fuc
# How it was run: as §1
# GlcNAc(b1-3)Gal = biological target: GlcNAc(b1-3)Gal
# How it was run: as §1
# [22] = biological target: GlcNAc(b1-3)Gal(b1-3)GalNAc
# How it was run: as §1
# GlcNAc(b1-3)Gal(b1-4)Glc = biological target: GlcNAc(b1-3)Gal(b1-4)Glc
# How it was run: as §1
# [23] = biological target: GlcNAc(b1-3)Gal(b1-4)GlcNAc
# How it was run: as §1
# [24] = biological target: GlcNAc(b1-3)Gal(b1-4)GlcNAc(b1-2)Man(a1-3)[GlcNAc(b1-3)Gal(b1-4)GlcNAc(b1-2)Man(a1-6)]Man(b1-4)GlcNAc(b1-4)GlcNAc
# How it was run: as §1
# [25] = biological target: GlcNAc(b1-3)Gal(b1-4)GlcNAc(b1-2)Man(a1-3)[GlcNAc(b1-3)Gal(b1-4)GlcNAc(b1-2)Man(a1-6)]Man(b1-4)GlcNAc(b1-4)[Fuc(a1-6)]GlcNAc
# How it was run: as §1
# [26] = biological target: GlcNAc(b1-3)Gal(b1-4)GlcNAc(b1-2)[GlcNAc(b1-3)Gal(b1-4)GlcNAc(b1-6)]Man(a1-6)[GlcNAc(b1-3)Gal(b1-4)GlcNAc(b1-2)Man(a1-3)]Man(b1-4)GlcNAc(b1-4)GlcNAc
# How it was run: as §1
# [27] = biological target: GlcNAc(b1-3)Gal(b1-4)GlcNAc(b1-3)Gal(b1-4)GlcNAc
# How it was run: as §1
# [28] = biological target: GlcNAc(b1-3)Gal(b1-4)GlcNAc(b1-3)Gal(b1-4)GlcNAc(b1-2)Man(a1-3)[GlcNAc(b1-3)Gal(b1-4)GlcNAc(b1-3)Gal(b1-4)GlcNAc(b1-2)Man(a1-6)]Man(b1-4)GlcNAc(b1-4)GlcNAc
# How it was run: as §1
# [29] = biological target: GlcNAc(b1-3)Gal(b1-4)GlcNAc(b1-3)Gal(b1-4)GlcNAc(b1-2)Man(a1-3)[GlcNAc(b1-3)Gal(b1-4)GlcNAc(b1-3)Gal(b1-4)GlcNAc(b1-2)Man(a1-6)]Man(b1-4)GlcNAc(b1-4)[Fuc(a1-6)]GlcNAc
# How it was run: as §1
# [30] = biological target: GlcNAc(b1-3)Gal(b1-4)GlcNAc(b1-3)Gal(b1-4)GlcNAc(b1-2)[GlcNAc(b1-3)Gal(b1-4)GlcNAc(b1-3)Gal(b1-4)GlcNAc(b1-6)]Man(a1-6)[GlcNAc(b1-3)Gal(b1-4)GlcNAc(b1-3)Gal(b1-4)GlcNAc(b1-2)Man(a1-3)]Man(b1-4)GlcNAc(b1-4)[Fuc(a1-6)]GlcNAc
# How it was run: as §1
# [31] = biological target: GlcNAc(b1-3)Gal(b1-4)GlcNAc(b1-3)Gal(b1-4)GlcNAc(b1-3)Gal(b1-4)GlcNAc(b1-2)Man(a1-3)[GlcNAc(b1-3)Gal(b1-4)GlcNAc(b1-3)Gal(b1-4)GlcNAc(b1-3)Gal(b1-4)GlcNAc(b1-2)Man(a1-6)]Man(b1-4)GlcNAc(b1-4)GlcNAc
# How it was run: as §1
# [32] = biological target: GlcNAc(b1-3)Gal(b1-4)GlcNAc(b1-3)Gal(b1-4)GlcNAc(b1-3)Gal(b1-4)GlcNAc(b1-2)Man(a1-3)[GlcNAc(b1-3)Gal(b1-4)GlcNAc(b1-3)Gal(b1-4)GlcNAc(b1-3)Gal(b1-4)GlcNAc(b1-2)Man(a1-6)]Man(b1-4)GlcNAc(b1-4)[Fuc(a1-6)]GlcNAc
# How it was run: as §1
# [33] = biological target: GlcNAc(b1-3)Gal(b1-4)GlcNAc(b1-3)Gal(b1-4)GlcNAc(b1-3)Gal(b1-4)GlcNAc(b1-2)[GlcNAc(b1-3)Gal(b1-4)GlcNAc(b1-3)Gal(b1-4)GlcNAc(b1-3)Gal(b1-4)GlcNAc(b1-6)]Man(a1-6)[GlcNAc(b1-3)Gal(b1-4)GlcNAc(b1-3)Gal(b1-4)GlcNAc(b1-3)Gal(b1-4)GlcNAc(b1-2)Man(a1-3)]Man(b1-4)GlcNAc(b1-4)[Fuc(a1-6)]GlcNAc
# How it was run: as §1
# [34] = biological target: GlcNAc(b1-3)Gal(b1-4)GlcNAc(b1-3)Gal(b1-4)GlcNAc(b1-3)Gal(b1-4)GlcNAc(b1-3)Gal(b1-4)GlcNAc(b1-2)Man(a1-3)[GlcNAc(b1-3)Gal(b1-4)GlcNAc(b1-3)Gal(b1-4)GlcNAc(b1-3)Gal(b1-4)GlcNAc(b1-3)Gal(b1-4)GlcNAc(b1-2)Man(a1-6)]Man(b1-4)GlcNAc(b1-4)GlcNAc
# How it was run: as §1
# [35] = biological target: GlcNAc(b1-3)Gal(b1-4)GlcNAc(b1-3)Gal(b1-4)GlcNAc(b1-3)Gal(b1-4)GlcNAc(b1-3)Gal(b1-4)GlcNAc(b1-2)Man(a1-3)[GlcNAc(b1-3)Gal(b1-4)GlcNAc(b1-3)Gal(b1-4)GlcNAc(b1-3)Gal(b1-4)GlcNAc(b1-3)Gal(b1-4)GlcNAc(b1-2)Man(a1-6)]Man(b1-4)GlcNAc(b1-4)[Fuc(a1-6)]GlcNAc
# How it was run: as §1
binder,measurement,setting,value
B1,glycan array binding signal (z-score),[1],-0.577
same,glycan array binding signal (z-score),[2],-1.01
same,glycan array binding signal (z-score),[3],-0.32
same,glycan array binding signal (z-score),[4],-0.341
same,glycan array binding signal (z-score),[5],-0.355
same,glycan array binding signal (z-score),[6],-0.738
same,glycan array binding signal (z-score),[7],0.206
same,glycan array binding signal (z-score),[8],0.328
same,glycan array binding signal (z-score),[9],-0.309
same,glycan array binding signal (z-score),[10],-0.086
same,glycan array binding signal (z-score),[11],0.12
same,glycan array binding signal (z-score),[12],0.262
same,glycan array binding signal (z-score),[13],1.01
same,glycan array binding signal (z-score),[14],-0.296
same,glycan array binding signal (z-score),[15],0.255
same,glycan array binding signal (z-score),[16],2.33
same,glycan array binding signal (z-score),[17],0.419
same,glycan array binding signal (z-score),[18],-0.274
same,glycan array binding signal (z-score),[19],-0.356
same,glycan array binding signal (z-score),[20],-0.058
same,glycan array binding signal (z-score),[21],-0.006
same,glycan array binding signal (z-score),GlcNAc(b1-3)Fuc,-0.715
same,glycan array binding signal (z-score),GlcNAc(b1-3)Gal,-0.291
same,glycan array binding signal (z-score),[22],-0.466
same,glycan array binding signal (z-score),GlcNAc(b1-3)Gal(b1-4)Glc,-0.251
same,glycan array binding signal (z-score),[23],-0.457
same,glycan array binding signal (z-score),[24],-0.501
same,glycan array binding signal (z-score),[25],0.282
same,glycan array binding signal (z-score),[26],-0.792
same,glycan array binding signal (z-score),[27],-0.374
same,glycan array binding signal (z-score),[28],0.145
same,glycan array binding signal (z-score),[29],-0.269
same,glycan array binding signal (z-score),[30],-0.425
same,glycan array binding signal (z-score),[31],-0.526
same,glycan array binding signal (z-score),[32],1.56
same,glycan array binding signal (z-score),[33],-0.407
same,glycan array binding signal (z-score),[34],0.935
same,glycan array binding signal (z-score),[35],-0.218
